We go through 167 variants from the RNAGym collection of RNA variant scans (doi:10.7554/elife.90254).

Read counts are not given, so values of variants with three or more changes are uncertain.

The labels stand for the following.
B1: LINE1-mini (parent)
chain: GGCAGAGCUCAACACAGCGUGGCAAAGUGGCUGUGGCUAGACUGCC

The variants in this series derive from B1. The series can be described thus: self-cleavage, relative activity (ratio to wild type); higher = more cleavage; in vitro, sequencing; the parent is a self-cleaving ribozyme.
Regarding G1U A4U C8U, the self-cleavage was 0.38. For G7U C10G U43A, the self-cleavage stood at 0.03.

For the variant G2A G5A C37A C42A, the self-cleavage is 0.48. Take U20A U34C G36A A39G G40A: the self-cleavage was 0.03. To G22U G36C A39U C42G C46U belongs 0.05; to G1C G7U G36U, 0.03; to G2U G19U A26U C31U, 0.07. As to C18A G27A U32A C46U, the self-cleavage is 0.01. In the case of G2A G7U G22A A25G it was 0.17. Regarding G2C C3U A11U C13G G17C G22A, the self-cleavage worked out at 0.01. To G7A A16G C46G belongs 0.39.

For the variant G1U C18A G44U, the self-cleavage came to 0.04. As to G2U C8A A26C G27U U34A, the self-cleavage was 0.08. In the case of U9G G40U C42A it was 0.03; in that of A6C C31A G36C G44C, 0.07. With G2A G33U A39G, the self-cleavage came to 0.49. For G1C G5C C10U A16C C18A U20G C31U, the self-cleavage is 0.02.

For G7A G19A C23U C37A, the self-cleavage was 0.07. As for A6C C23G A39C C45U, the self-cleavage was determined as 0.72. With G7A G19U G35A C46A, the self-cleavage came out at 0.06.

Take A11U C18U A25G: the self-cleavage was determined as 0.03. To U20C U28C G29C belongs 0.05. To C3A A12C G17C A25U belongs 0.06; to C13U C37G A41G C46A, 0.01; to A14C C23A C42G, 0.19. On to U9C U20G U32G, for which the self-cleavage worked out at 0.05.

Consider U28A G35A A39U, for which the self-cleavage turned out to be 0.21. Take A4C A6U A11G C46A: the self-cleavage was found to be 0.02. For the variant C10A C18A G29C G30U C31A G44C, the self-cleavage amounted to 0. In the case of A6U G33U C37G C45G it was 0.01; in that of U9A G30U U38C, 0.17.

G17A G22A G30A C42U U43G: the self-cleavage turned out to be 0.03.

With C3U A4G C8U A24U, the self-cleavage stood at 0.03. In the case of C23U G29U G30U C37U it was 0.08; in that of G7U G19U C45G, 0.04. G2U G7A C10U: the self-cleavage worked out at 0.01. On to A11U A26C G36U C37U U43A, for which the self-cleavage came to 0. Regarding G27U C31G A41C U43C, the self-cleavage is 0.06. For the variant G19U U20A U34G G40U, the self-cleavage turned out to be 0.05. Take U9A A24U A25U A39C C46G: the self-cleavage turned out to be 0.08. C13A G22A G27A U28C U34C: the self-cleavage was found to be 0.17.

For G7U C8G U28G A39U A41G, the self-cleavage worked out at 0.1. To G5C U9C G35A A39U A41U belongs 0.01. In the case of G2A A4U C10A U34G, the self-cleavage amounted to 0.06.

On to C15G A16U G40A C45G, for which the self-cleavage was found to be 0.04. In the case of C3U C15G U20C G29C, the self-cleavage came to 0.04. As for A16C C18A C46A, the self-cleavage worked out at 0.05.

In the case of G7U A41G C42A U43C G44U C45G, the self-cleavage was found to be 0.04. On to A14C G17C C31A C42A, for which the self-cleavage was determined as 0.03. Turning to A24G C37A U43C, the self-cleavage turned out to be 0.07. To C3G A4U A11G G30C U34A belongs 0.03. C3U C31G C46A: the self-cleavage was 0.03. In the case of G2A C8A U32C it was 0.68. In the case of A11C C13A G19U A24U it was 0.01; in that of A14C C31G G36A U38C A39G, 0.03; in that of G7A G17U G33A, 0.06. As to C8U U20C C31A, the self-cleavage was determined as 0.08. A6C A11G C13A: the self-cleavage stood at 0.01.

Consider G5U C10U G17C U34C, for which the self-cleavage was determined as 0.04.

Consider U28A G35C C46A, for which the self-cleavage is 0.06. To G2U U9A A41C belongs 0.04. To C15A C18A A26C belongs 0.07; to C15U G19A U20A, 0.63; to G2A A24G A41G, 0.37. To G5C C23U A26C belongs 0.05. On to A25C C42G C45A C46U, for which the self-cleavage was determined as 0.01. On to U9A C10U C18A C23A G33C C45G, for which the self-cleavage came to 0.01. For the variant C15A G19C U32G, the self-cleavage came out at 0.03.

For C10A A12U A24G, the self-cleavage came to 0.06. To C10A G36C A41G belongs 0.02; to C13A A25G U34G, 0.03; to G5U A14U A16U, 0.

With C15A A25C G33U, the self-cleavage turned out to be 0.2. In the case of A4G G17A U28G C31U it was 0.15; in that of U9G A14G G44U, 0.08. To A26U C37A A39G belongs 0.04. In the case of G1C A11C G22U A39G, the self-cleavage stood at 0.

Regarding G1A G2A C46G, the self-cleavage was determined as 1.48.

For G17A G22C G27C, the self-cleavage was 0.04.

For the variant U9C A14U G21U, the self-cleavage was 0.07.

On to A12G C13U U20C G30U, for which the self-cleavage was 0.04. With A11G G22U G27A, the self-cleavage worked out at 0.1. Consider A24U A25G G36A, for which the self-cleavage stood at 0.12. To A24G G27A G29A C31U belongs 0.85; to A4U A11U A41C C46A, 0.01; to A4G C10G G17C A39U, 0.03. In the case of C8G A16C A25G G27C U34G, the self-cleavage came out at 0.01. For A12U A25C G27C, the self-cleavage stood at 0.04.

A4G C8U C31A A39U: the self-cleavage stood at 0.03. As for G27A U28A G30A C45U, the self-cleavage was 1.53. To C8A A11G C15A A25G C45U belongs 0.06. With G22U G27C G35C A39G G44U, the self-cleavage came to 0.13. Turning to A6U G7C G40U, the self-cleavage came to 0.1. As to U9G C10G C31A U32G, the self-cleavage is 0.02. For the variant C10A C13U G33U, the self-cleavage was determined as 0.05. As for U20A G30U C46A, the self-cleavage came to 0.23. Turning to G5U A11C C15G C23A C46A, the self-cleavage came to 0.02. In the case of C8U G21A A41C it was 0.24; in that of G2U G5A C37A G40C, 0.02.

As for C8U A12G A14C C46G, the self-cleavage was determined as 0.04.

As to C10A G27U G33U, the self-cleavage amounted to 0.01. To C10A U34A C45G belongs 0.03; to G2A G21A A24G, 1.24; to G1A C13U G29U C31A G40A, 0.02. To A4U A6G G7A G33C belongs 0.02; to A6G G7U G40A, 0.02; to C3U G5U C15A, 0.06.

Turning to A4U U9G G19U G36U C45U C46A, the self-cleavage stood at 0.14. In the case of A14U C18G U20A it was 0.1; in that of C3U A4G C45G, 0.06. Take A14U G35A G36U G44A: the self-cleavage stood at 0.04. On to C10G C13U C37A C45U, for which the self-cleavage is 0.01. For the variant C10U U34C G35U, the self-cleavage worked out at 0.03. For A4C G7U C8G U28A G40U, the self-cleavage came out at 0.12.

On to C10U C13U A41C C42U, for which the self-cleavage is 0.06.

For C31G U32G C37A, the self-cleavage amounted to 0.02. In the case of G1U G22U G27A it was 0.23; in that of C8A G22C A41C, 0.11; in that of C3A C18A G27A, 0.25.

Consider G5U G7A C13U A26U C31U G33C, for which the self-cleavage worked out at 0.18. Turning to G5C G19C U43A, the self-cleavage was 0.02. Consider U34C G40U C46G, for which the self-cleavage was 0.24. Consider C8A A25U G29U, for which the self-cleavage worked out at 0.41. Turning to G21A G33C G40A G44C, the self-cleavage was determined as 0.02.

In the case of U20C G21U C31U, the self-cleavage came to 0.37. As to C10U A14U A25G G27A C37G, the self-cleavage amounted to 0.02. With G2A G5A A16C C23U G27U U32G, the self-cleavage worked out at 0.04. To A4U G40U U43C belongs 0.05.

On to A11C A12U A14U G44C, for which the self-cleavage turned out to be 0.03. As to G1C G5U A6C C10A, the self-cleavage amounted to 0. As for G1U G7A G35A, the self-cleavage was found to be 0.11. To G1C A4C A24G C31G belongs 0.02. Turning to C13A G36A C42U, the self-cleavage is 0.04. In the case of A12G U20A A25G G30C, the self-cleavage was found to be 0.03. Turning to G5U A6G C46U, the self-cleavage was 0.11. To G5C C10A C13U G17U A24U G40A belongs 0.03. In the case of G5A A24U G33C, the self-cleavage came out at 0.03.

In the case of G1A C18U U43C C45A, the self-cleavage is 0.02. In the case of A4C C8U C18U U43A it was 0.07. For the variant A6U G17U A25G G35C C45A, the self-cleavage stood at 0.01.

In the case of A12U U28G G30A A41G, the self-cleavage was found to be 0.03. In the case of A4G A11G C15G G17C G30U it was 0.03; in that of A12G C13A G40C, 0.01; in that of G5A U9G G36A, 0.47. Consider C18A C23A G27C C31U U43G, for which the self-cleavage came out at 0. To C3G U9G C37U belongs 0.23. In the case of C8U A14G G19U G35A it was 0.03; in that of G27U U28C G35C, 0.15; in that of G22C C23U G33C A39U, 0.08. In the case of U9A G17C U38C it was 0.03; in that of U34G A39G C46A, 0.01.

Take A12U A14G A16U G40U: the self-cleavage worked out at 0.05. To U9C A14U G30C G40U belongs 0.02.

With A4C G17A A26U, the self-cleavage is 0.11. For G17U G19U G22U A25C G30C, the self-cleavage amounted to 0.13.

As for A4C C18A G19A C31G, the self-cleavage came to 0.03. In the case of G1C U9A U20C it was 0.01. To A14U G21U C23A G35A belongs 0.11; to C8U G17C C31G, 0.09; to G2C A6C G35C, 0.06.

A4C G7U U34C: the self-cleavage stood at 0.35.

As for A4C C10A G33U U38A, the self-cleavage was 0.05. As to A4U A14U A16U G19U A24G, the self-cleavage was 0.02. In the case of G5C A12G G17A G27U U28A A39U C42A it was 0.06. Take C18A U20G G22U: the self-cleavage is 0.11. On to A16U G19A G29U, for which the self-cleavage was found to be 0.44. On to C8U G19U U20G G29C, for which the self-cleavage is 0.12.
